# “And” between values parts separate entries of the source, which are not always exact repeats. Equal values may be shown once. Inconclusive results, whose numbers are uncertain, are shown with a selection of clear calls. Where the call is inconclusive, the potency comes from a doubtful curve fit. Where a structure was tested more than once in an assay, its records may differ in their call. The source made the active and inactive calls. Unless noted, the call rests on the fitted dose curve; in most records, active means well fitted curve in the direction sought with a large enough effect in the repeat runs; inconclusive means weak or mixed curves; inactive means no such curve, though single readings can be large; an effect the other way counts as inactive or inconclusive.
# Experiments:
# [1] = qHTS assay to identify small molecule antagonists of the androgen receptor (AR) signaling pathway - cell viability counter screen (AID 743033; further: nearly all actives have a fitted effect of over 45% in size)
# [2] = qHTS assay to identify small molecule antagonists of the androgen receptor (AR) signaling pathway using the MDA cell line - cell viability counter screen (AID 743041; further: nearly all actives have a fitted effect of over 45% in size; on viability change, negative = cytotoxic: on the % scale 0 is the no-effect control and ±100 the full control effect); details: MDA-kb2 viability, CellTiter-Fluor, 16 h, cells co-treated with R1881 androgen agonist; viability change, negative = cytotoxic: at 70.3 µM (top of the series) unless noted
# Summary of the method: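 MDA-kb2 AR-luc human breast carcinoma cells (MMTV-luciferase, AR/GR responsive) were treated with compounds plus R1881 agonist for 16 h at 37 °C. Viability was read as CellTiter-Fluor fluorescence in the same wells as the reporter assay.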
# [3] = qHTS assay to identify small molecule antagonists of the thyroid receptor (TR) signaling pathway - cell viability counter screen (AID 743064); details: GH3.TRE-Luc viability, CellTiter-Fluor, 24 h; activity change, negative = cytotoxic: at 70.3 µM (top of the series) unless noted; further: nearly all actives have a fitted effect of over 50% in size
# Summary of the method: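 Viability of T3-stimulated (1 nM final) GH3.TRE-Luc cells is measured by CellTiter-Fluor fluorescence after 23.5 h compound exposure at 37 °C plus 30 min reagent incubation.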
# [4] = qHTS assay to identify small molecule antagonists of the thyroid receptor (TR) signaling pathway (AID 743065); further: nearly all actives have a fitted effect of over 55% in size
# Summary of the method: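 GH3.TRE-Luc rat pituitary cells carrying two TR response elements driving luciferase were plated for 4 h, given compound plus 1 nM T3 (final), and incubated 23.5 h at 37 C. ONE-Glo luminescence measured reporter inhibition; CellTiter-Fluor fluorescence tracked cytotoxicity.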
# [5] = target: Androgen receptor (Homo sapiens) (UniProt P10275); assay: qHTS assay to identify small molecule antagonists of the androgen receptor (AR) signaling pathway (AID 743035; active means well fitted inhibition curve with a large enough effect in the signal ratio in the repeat runs, not every such curve was filed as active; inconclusive means weak or mixed curves, or effect the other way; inactive means no such curve, though single readings can be large or run the other way; the % refers to the signal ratio); details: HEK293 AR-UAS-bla, R1881-stimulated, beta-lactamase FRET, 16 h; activity change, negative = inhibition: at 58.5 µM (top of the series) unless noted
# Chain of UniProt P10275 (P10275 whole entry, looked up): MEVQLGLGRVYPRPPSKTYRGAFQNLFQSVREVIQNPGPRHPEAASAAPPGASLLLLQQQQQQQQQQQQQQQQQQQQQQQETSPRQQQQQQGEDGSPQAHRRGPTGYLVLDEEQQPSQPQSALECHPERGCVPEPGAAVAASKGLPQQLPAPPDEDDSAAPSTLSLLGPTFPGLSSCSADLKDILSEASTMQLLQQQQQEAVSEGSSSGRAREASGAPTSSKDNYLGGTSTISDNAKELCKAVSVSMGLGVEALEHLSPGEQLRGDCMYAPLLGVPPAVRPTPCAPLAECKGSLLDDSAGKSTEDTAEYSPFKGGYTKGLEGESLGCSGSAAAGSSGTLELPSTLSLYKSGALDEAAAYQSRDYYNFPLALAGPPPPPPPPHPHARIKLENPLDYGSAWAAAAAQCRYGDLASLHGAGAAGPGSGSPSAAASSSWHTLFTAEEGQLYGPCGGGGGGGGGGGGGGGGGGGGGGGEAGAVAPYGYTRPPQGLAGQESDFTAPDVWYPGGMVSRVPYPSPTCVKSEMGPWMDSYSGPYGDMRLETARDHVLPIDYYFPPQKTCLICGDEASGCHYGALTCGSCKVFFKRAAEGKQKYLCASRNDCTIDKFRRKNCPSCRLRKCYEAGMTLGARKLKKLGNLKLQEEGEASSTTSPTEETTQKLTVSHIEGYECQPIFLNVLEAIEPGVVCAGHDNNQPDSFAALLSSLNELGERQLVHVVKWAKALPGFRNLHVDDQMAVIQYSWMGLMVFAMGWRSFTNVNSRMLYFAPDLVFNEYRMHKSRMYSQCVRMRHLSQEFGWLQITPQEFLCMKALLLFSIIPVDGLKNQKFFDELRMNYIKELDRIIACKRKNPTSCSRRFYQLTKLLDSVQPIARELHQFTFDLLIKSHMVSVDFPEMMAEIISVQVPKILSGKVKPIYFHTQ
# Summary of the method: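 Cell line: GeneBLAzer AR-UAS-bla GripTite (HEK293). Stimulus: R1881 added after compound. Exposure: 16 h, 37C, 5% CO2. Readout: LiveBLAzer B/G FRET fluorescence after 2 h at room temperature.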
# [6] = target: Androgen receptor (Homo sapiens) (UniProt P10275); assay: qHTS assay to identify small molecule agonists of the androgen receptor (AR) signaling pathway using the MDA cell line (AID 743040; further: nearly all actives have a fitted effect of over 20% in size); details: MDA-kb2 AR-luc cells, MMTV luciferase, 16 h; activity change: at 70.3 µM (top of the series), stronger effect = higher value
# Summary of the method: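 MDA-kb2 breast carcinoma cells stably carrying an MMTV-driven luciferase reporter (AR- and GR-responsive) were seeded and held 5 h at 37C, 0% CO2, then exposed to compounds in DMSO for 16 h. Luminescence was read 30 min after ONE-Glo addition.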
# [7] = target: Androgen receptor (Homo sapiens) (UniProt P10275); assay: qHTS assay to identify small molecule agonists of the androgen receptor (AR) signaling pathway (AID 743036; active means well fitted activation curve with a large enough effect in the signal ratio in the repeat runs, with a control signal flat, not every such curve was filed as active; inconclusive means weak or mixed curves, or effect the other way; inactive means no such curve, though single readings can be large or run the other way; the % refers to the signal ratio; on activation: on the % scale 0 is the no-effect control and ±100 the full control effect); details: HEK293 AR-UAS-bla GripTite, beta-lactamase FRET ratio, 16 h; activation: at 62.4 µM (top of the series) unless noted
# Summary of the method: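 Screening used 2,000 AR-bla HEK293 cells per well, treated 16 h at 37C with test compounds in DMSO alongside positive and DMSO-only controls; beta-lactamase activity was then read by LiveBLAzer B/G FRET fluorescence after 2 h at room temperature.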
# Potency means the concentration at half of the fitted maximal effect; tags describe the fitted curve by direction and shape or compound fluorescence and quenching.
compound,measurement,setting,value
CC1=C(/C=C/C(C)=C/C=C/C(C)=C/C=O)C(C)(C)CCC1,Potency,[1],active: 21.8 µM
same,Potency,[2],inconclusive: 68.2 µM [cytotoxic]
CC(=O)O[C@]1(C(C)=O)CC[C@H]2[C@@H]3C=C(Cl)C4=CC(=O)[C@@H]5C[C@@H]5[C@]4(C)[C@H]3CC[C@@]21C,Potency,[1],"inconclusive: 54.9 µM [cytotoxic, single point]"
same,Potency,[2],inconclusive: 68.5 µM [cytotoxic]
same,Potency,[3],active: 54.4 µM
same,Potency,[4],"inconclusive: 26.6 µM [inhibitor, partial curve]"
C=CCc1cc(S(=O)(=O)c2ccc(O)c(CC=C)c2)ccc1O,Potency,[1],"inconclusive: 54.9 µM [cytotoxic, partial curve]"
same,Potency,[5],active: 38.9 µM
same,Potency,[2],"inconclusive: 68.6 µM [cytotoxic, single point]"
CCOC(=O)N1CCC(=C2c3ccc(Cl)cc3CCc3cccnc32)CC1,Potency,[1],"inconclusive: 6.74 µM [cytotoxic, partial curve, poor fit] and active: 17.4 µM"
same,Potency,[2],inconclusive: 68.6 µM [cytotoxic]
same,"viability change, negative = cytotoxic",[2],inconclusive: -30.3% [cytotoxic]
same,Potency,[3],active: 26.6 µM and active: 27.3 µM
CN(C)CCCN1c2ccccc2Sc2ccc(Cl)cc21,Potency,[1],"inconclusive: 23.9 µM [cytotoxic, partial curve] and active: 24.5 µM"
same,Potency,[2],"inconclusive: 31.2 µM [cytotoxic, single point] and active: 68.6 µM"
CN(C)CCCN1c2ccccc2CCc2ccc(Cl)cc21,Potency,[1],"inconclusive: 21.3 µM [cytotoxic, partial curve, poor fit] and active: 24.5 µM"
same,Potency,[2],"inconclusive: 31.2 µM [cytotoxic, single point]"
Cc1c2ccccc2c(C)c2c1ccc1ccccc12,Potency,[1],active: 48.5 µM and active: 24.5 µM
same,Potency,[6],"inconclusive: 10.8 µM [activator, partial curve]"
same,Potency,[2],"inconclusive: 67.9 µM [cytotoxic, partial curve, poor fit] and active: 61.1 µM"
same,Potency,[3],active: 27 µM and active: 13.7 µM
COC(=O)C1=C(C)NC(C)=C(C(=O)OCC(C)C)C1c1ccccc1[N+](=O)[O-] (configuration not stated),Potency,[1],"inconclusive: 30.1 µM [cytotoxic, partial curve, poor fit]"
same,Potency,[2],"inconclusive: 31.2 µM [cytotoxic, partial curve, poor fit] and inconclusive: 68.6 µM [cytotoxic, single point]"
CCN=c1cc2oc3cc(NCC)c(C)cc3c(-c3ccccc3C(=O)OCC)c-2cc1C,Potency,[1],active: 689 nM and active: 1.23 µM
same,activation,[7],inconclusive: -23.2% and inconclusive: -36.5%
same,Potency,[2],active: 683 nM and active: 386 nM
Cc1ccc(-c2cc(C(F)(F)F)nn2-c2ccc(S(N)(=O)=O)cc2)cc1,Potency,[1],"inconclusive: 23.9 µM [cytotoxic, single point] and active: 34.5 µM and active: 43.6 µM"
same,Potency,[7],inactive and inconclusive: 48.8 µM
same,Potency,[2],"inconclusive: 68.3 µM [cytotoxic, single point] and inconclusive: 68.6 µM [cytotoxic, single point]"
same,Potency,[3],"inconclusive: 77 µM [cytotoxic, single point]"
CCCCC(CC)CN=C(N)NC(N)=NCCCCCCN=C(N)NC(N)=NCC(CC)CCCC (configuration not stated),Potency,[1],active: 13.4 µM
same,Potency,[5],"inconclusive: 26.8 µM [falling, single point]"
same,Potency,[7],"inconclusive: 23.9 µM [cytotoxic, partial curve]"
same,Potency,[3],active: 7.5 µM
Cc1cc2c(C(C)C)c(O)c(O)c(C=O)c2c(O)c1-c1c(C)cc2c(C(C)C)c(O)c(O)c(C=O)c2c1O,Potency,[1],active: 21.3 µM
same,Potency,[2],"inconclusive: 29.8 µM [cytotoxic, partial curve]"
Cc1cc(Br)ccc1NC(=O)CCl,Potency,[1],active: 24.5 µM
same,Potency,[2],active: 48.6 µM
same,Potency,[3],active: 21.7 µM
COc1ccc(CN2CCN(C(c3ccc(F)cc3)c3ccc(F)cc3)CC2)c(OC)c1OC,Potency,[1],active: 23.9 µM
same,Potency,[2],"inconclusive: 27.8 µM [cytotoxic, single point]"
same,Potency,[3],active: 11.9 µM
Oc1ccc2cc(SSc3ccc4cc(O)ccc4c3)ccc2c1,Potency,[1],"inconclusive: 43.7 µM [cytotoxic, partial curve, poor fit] and inconclusive: 49 µM [cytotoxic, partial curve]"
same,Potency,[2],"inconclusive: 68.6 µM [cytotoxic, single point]"
CCN(CC)c1ccc(N)cc1,Potency,[1],active: 15.9 µM
same,Potency,[2],active: 22.3 µM
same,Potency,[3],inconclusive: 70.5 µM [cytotoxic]
